Test system: weeds; Oilseed rape
Assay: Ex12 PRE greenhouse
Type: in vivo
Conditions: 28 DAT, rate in the words
Method: The tested weeds include: wild buckwheat (Polygonum convolvulus, POLCO), velvetleaf (Abutilon theophrasti, ABUTH), cheat (Bromus secalinus, BROSE), wild oat (Avena fatua, AVEFA), radish (Raphanus sativus, RAPSN), corn poppy (Papaver rhoeas, PAPRH), yellow foxtail (Setaria pumila, SETLU), Italian ryegrass (Lolium perenne ssp. multiflorum, LOLMU). The tested crop was Oilseed rape.
This greenhouse study was conducted to assess the preemergence (PRE) weed control and oilseed rape tolerance with 2,4 DC (CS 36.7%) and dimethenamid-P (Outlook®, 63.9%) tank-mix combinations.
Metazachlor (Butisan, 43.1%) plus dimethenamid-P applied as tank mix at 500 g each was applied as commercial standard. Treatments were replicated 3 times and flats were watered after planting but before the treatment and then lightly watered after treatment application. Thereafter flats were watered and fertilized routinely.

Compound	weed control / crop safety in words
CC1(C)CON(Cc2ccc(Cl)cc2Cl)C1=O [2,4-DC, 2-(2,4-dichlorophenyl)methyl-4,4-dimethyl-3-isoxazolidinone]	alone at all rates did not control any weed species
COC[C@H](C)N(C(=O)CCl)c1c(C)csc1C [Dimethenamid-P, dimethenamid-P, reference compound]	alone at all three rates controlled cheat, corn poppy, yellow foxtail, and Italian ryegrass

— patent US12616203B2, “Use of 3-isoxazolidinones compounds as selective herbicides” (FMC Corporation, priority 2014, dated 2026)
